The list shows a part of the results. Repeats are few or missing, and single values can be far off.
Assays:
Assay in all cases: cell count relative to DMSO control; melanoma cells; higher = more viable cells
Conditions in all cases: library dose: low library concentration; 72 h
[1] = test system: WM115
[2] = test system: WM1716
[3] = test system: WM1745
[4] = test system: WM3526
[5] = test system: WM3619
[6] = test system: WM451Lu
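Note: cell number obtained by counting DAPI-stained nuclei in high-throughput microscope images with image analysis software, screen run in 1,536-well plates.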

| Structure (SMILES) | cell count [1] [%] | cell count [2] [%] | cell count [3] [%] | cell count [4] [%] | cell count [5] [%] | cell count [6] [%] |
| --- | --- | --- | --- | --- | --- | --- |
| CN(C)S(=O)(=O)c1ccc2c(c1)/C(=C/c1cc3c([nH]1)CCCC3)C(=O)N2 + O=C(Nc1ccccc1)c1cc([N+](=O)[O-])ccc1Cl [GW9662] (first compound 0.4 µM, partner dose 2 µM) | 79.7 | 107 | 87.9 | 109 | 93.3 | 98.9 |
| C=CCn1c(=O)c2cnc(Nc3ccc(N4CCN(C)CC4)cc3)nc2n1-c1cccc(C(C)(C)O)n1 + COc1ccc2c(c1)CCC1C2CCC2(C)C(NCCCCCCN3C(=O)C=CC3=O)CCC12 [U73122] (first compound 0.02 µM, partner dose 0.4 µM) | 80.7 | 69.5 | 84.6 | 107 | 67.6 | 103 |
| OCCn1cc(-c2cnc3nnn(Cc4ccc5ncccc5c4)c3n2)cn1 + CN(NC(=O)CC(=O)NN(C)C(=S)c1ccccc1)C(=S)c1ccccc1 [STA4783] (first compound 1 µM, partner dose 0.006 µM) | 99.2 | 76.8 | 93.7 | 91.1 | 118 | 86.6 |
| C[C@]1(c2nc3c(C(N)=O)cccc3[nH]2)CCCN1 [Veliparib] + O=C(CCCCCCC(=O)Nc1ccccc1)NO [vorinostat] (first compound 1.4 µM, partner dose 0.08 µM) | 82.9 | 88.5 | 99.1 | 91.2 | 108 | 91.8 |
| C=CCn1c(=O)c2cnc(Nc3ccc(N4CCN(C)CC4)cc3)nc2n1-c1cccc(C(C)(C)O)n1 + CCN(CC)CCCCNc1ncc2cc(-c3cc(OC)cc(OC)c3)c(NC(=O)NC(C)(C)C)nc2n1 [PD173074] (first compound 0.02 µM, partner dose 0.1 µM) | 93.6 | 89.3 | 73.8 | 71 | 62.3 | 98 |
| C=CCn1c(=O)c2cnc(Nc3ccc(N4CCN(C)CC4)cc3)nc2n1-c1cccc(C(C)(C)O)n1 + Cn1cncc1[C@@](N)(c1ccc(Cl)cc1)c1ccc2c(c1)c(-c1cccc(Cl)c1)cc(=O)n2C [tipifarnib] (first compound 0.02 µM, partner dose 0.01 µM) | 63.7 | 65.7 | 74.7 | 76.7 | 71.8 | 75.4 |
| CO[C@@H]1[C@H](N(C)C(=O)c2ccccc2)C[C@H]2O[C@]1(C)n1c3ccccc3c3c4c(c5c6ccccc6n2c5c31)C(=O)NC4 [Midostaurin] + O=C1NC(=O)/C(=C/c2ccc(-c3ccc(F)cc3O)o2)S1 [AS252424] (first compound 0.08 µM, partner dose 1 µM) | 74.7 | 74.5 | 81.6 | 103 | 91.2 | 96.1 |
| CN(C)S(=O)(=O)c1ccc2c(c1)/C(=C/c1cc3c([nH]1)CCCC3)C(=O)N2 + COc1ccc2c(c1)CCC1C2CCC2(C)C(NCCCCCCN3C(=O)C=CC3=O)CCC12 [U73122] (first compound 0.4 µM, partner dose 0.4 µM) | 91.9 | 102 | 78.2 | 101 | 105 | 84.8 |
| OCCn1cc(-c2cnc3nnn(Cc4ccc5ncccc5c4)c3n2)cn1 + CCN(CC)CCCCNc1ncc2cc(-c3cc(OC)cc(OC)c3)c(NC(=O)NC(C)(C)C)nc2n1 [PD173074] (first compound 1 µM, partner dose 0.1 µM) | 97.2 | 96.8 | 86.5 | 102 | 121 | 112 |
| Cc1nc(Nc2ncc(C(=O)Nc3c(C)cccc3Cl)s2)cc(N2CCN(CCO)CC2)n1 [dasatanib] + COc1cc(N2CCC(N3CCN(C)CC3)CC2)ccc1Nc1ncc(Cl)c(Nc2ccccc2S(=O)(=O)C(C)C)n1 [NVP-TAE684] (first compound 0.004 µM, partner dose 0.08 µM) | 65.9 | 55.4 | 40.8 | 97.8 | 80.4 | 82.5 |
| C[C@]1(c2nc3c(C(N)=O)cccc3[nH]2)CCCN1 [Veliparib] + COc1ccc(COc2ccc(Cc3cnc(N)nc3N)cc2OC)cc1 [GW2580] (first compound 1.4 µM, partner dose 1 µM) | 90.6 | 97.6 | 82.2 | 104 | 94.5 | 158 |
| NC(=O)Nc1cc(-c2cccc(F)c2)sc1C(=O)N[C@H]1CCCNC1 + NCC(=O)Nc1ccc(-n2nc(C(F)(F)F)cc2-c2ccc3c(ccc4ccccc43)c2)cc1 [OSU03012] (first compound 0.02 µM, partner dose 1 µM) | 82.3 | 89.4 | 110 | 43.2 | 79.2 | 54.5 |
| NC(=O)Nc1cc(-c2cccc(F)c2)sc1C(=O)N[C@H]1CCCNC1 + O=C1NC(=O)/C(=C/c2ccc(-c3ccc(F)cc3O)o2)S1 [AS252424] (first compound 0.02 µM, partner dose 1 µM) | 86.5 | 84.7 | 86.1 | 74.2 | 70 | 94.3 |
| C[C@]1(c2nc3c(C(N)=O)cccc3[nH]2)CCCN1 [Veliparib] + CO[C@@H]1[C@H](N(C)C(=O)c2ccccc2)C[C@H]2O[C@]1(C)n1c3ccccc3c3c4c(c5c6ccccc6n2c5c31)C(=O)NC4 [Midostaurin] (first compound 1.4 µM, partner dose 0.08 µM) | 73.1 | 58 | 83.5 | 94.8 | 99.5 | 99.6 |
| C=CCn1c(=O)c2cnc(Nc3ccc(N4CCN(C)CC4)cc3)nc2n1-c1cccc(C(C)(C)O)n1 + NCC(=O)Nc1ccc(-n2nc(C(F)(F)F)cc2-c2ccc3c(ccc4ccccc43)c2)cc1 [OSU03012] (first compound 0.02 µM, partner dose 1 µM) | 85.2 | 94.1 | 83.7 | 44.1 | 63.9 | 39.3 |
| CO[C@@H]1[C@H](N(C)C(=O)c2ccccc2)C[C@H]2O[C@]1(C)n1c3ccccc3c3c4c(c5c6ccccc6n2c5c31)C(=O)NC4 [Midostaurin] + Cc1cc(N2CCOCC2)cc2[nH]c(-c3c(NC[C@@H](O)c4cccc(Cl)c4)cc[nH]c3=O)nc12 [BMS536924] (first compound 0.08 µM, partner dose 0.2 µM) | 86.8 | 74.9 | 79.3 | 88.1 | 98.6 | 107 |
| CN(C)S(=O)(=O)c1ccc2c(c1)/C(=C/c1cc3c([nH]1)CCCC3)C(=O)N2 + Oc1nc(-c2ccc(C(F)(F)F)cc2)nc2c1CSCC2 [XAV939] (first compound 0.4 µM, partner dose 2 µM) | 79.7 | 83.2 | 92.5 | 73 | 96.5 | 69.7 |
| CO[C@@H]1[C@H](N(C)C(=O)c2ccccc2)C[C@H]2O[C@]1(C)n1c3ccccc3c3c4c(c5c6ccccc6n2c5c31)C(=O)NC4 [Midostaurin] + COc1ccc2c(c1)CCC1C2CCC2(C)C(NCCCCCCN3C(=O)C=CC3=O)CCC12 [U73122] (first compound 0.08 µM, partner dose 0.4 µM) | 91.2 | 77.6 | 89.9 | 83.2 | 102 | 70.9 |
| OCCn1cc(-c2cnc3nnn(Cc4ccc5ncccc5c4)c3n2)cn1 + COc1cc2ncnc(Nc3ccc(Oc4ccccc4)cc3)c2cc1OC [SrcI1] (first compound 1 µM, partner dose 2 µM) | 115 | 100 | 91.8 | 108 | 118 | 132 |
| C=CCn1c(=O)c2cnc(Nc3ccc(N4CCN(C)CC4)cc3)nc2n1-c1cccc(C(C)(C)O)n1 + COc1ccc(COc2ccc(Cc3cnc(N)nc3N)cc2OC)cc1 [GW2580] (first compound 0.02 µM, partner dose 1 µM) | 84.4 | 93.4 | 88.9 | 108 | 70.8 | 112 |
| C=CCn1c(=O)c2cnc(Nc3ccc(N4CCN(C)CC4)cc3)nc2n1-c1cccc(C(C)(C)O)n1 + c1cc(-c2cnn3cc(-c4ccc(OCCN5CCCCC5)cc4)cnc23)ccn1 [Dorsomorphin] (first compound 0.02 µM, partner dose 0.4 µM) | 89 | 80.9 | 58.4 | 79.5 | 87 | 83.4 |
| CN(C)S(=O)(=O)c1ccc2c(c1)/C(=C/c1cc3c([nH]1)CCCC3)C(=O)N2 + CCN(CC)CCCCNc1ncc2cc(-c3cc(OC)cc(OC)c3)c(NC(=O)NC(C)(C)C)nc2n1 [PD173074] (first compound 0.4 µM, partner dose 0.1 µM) | 75.1 | 114 | 90.3 | 111 | 126 | 71.2 |
| C[C@]1(c2nc3c(C(N)=O)cccc3[nH]2)CCCN1 [Veliparib] + N#Cc1c(O)c2c(-c3ccc(-c4ccccc4O)cc3)csc2[nH]c1=O [A769662] (first compound 1.4 µM, partner dose 2 µM) | 82.8 | 80.9 | 93 | 116 | 138 | 93.4 |
| C[C@]1(c2nc3c(C(N)=O)cccc3[nH]2)CCCN1 [Veliparib] + CCc1ccc(CCOc2ccc(CC3SC(=O)NC3=O)cc2)nc1 [pioglitazone] (first compound 1.4 µM, partner dose 2 µM) | 79.9 | 81.8 | 79.9 | 99.1 | 81.3 | 106 |
| C[C@]1(c2nc3c(C(N)=O)cccc3[nH]2)CCCN1 [Veliparib] + COC(=O)c1sccc1S(=O)(=O)Nc1ccc(Nc2ccccc2)cc1OC [GSK0660] (first compound 1.4 µM, partner dose 1 µM) | 77.6 | 92 | 93.5 | 117 | 115 | 96.9 |
